These are yes or no findings as the source states them, for the method shown. Binding seen in cells or lysates may run through a third protein. Some binding calls cover weakened binding; strength is not graded here. For part of these data: Sequences can lack the tags named with a protein.

Protein sequences, listed by entry. Tags and fused reporters are not part of them. Lines headed by an entry give the natural chain unless they say otherwise; changes in a name come on top.
UniProt P50077: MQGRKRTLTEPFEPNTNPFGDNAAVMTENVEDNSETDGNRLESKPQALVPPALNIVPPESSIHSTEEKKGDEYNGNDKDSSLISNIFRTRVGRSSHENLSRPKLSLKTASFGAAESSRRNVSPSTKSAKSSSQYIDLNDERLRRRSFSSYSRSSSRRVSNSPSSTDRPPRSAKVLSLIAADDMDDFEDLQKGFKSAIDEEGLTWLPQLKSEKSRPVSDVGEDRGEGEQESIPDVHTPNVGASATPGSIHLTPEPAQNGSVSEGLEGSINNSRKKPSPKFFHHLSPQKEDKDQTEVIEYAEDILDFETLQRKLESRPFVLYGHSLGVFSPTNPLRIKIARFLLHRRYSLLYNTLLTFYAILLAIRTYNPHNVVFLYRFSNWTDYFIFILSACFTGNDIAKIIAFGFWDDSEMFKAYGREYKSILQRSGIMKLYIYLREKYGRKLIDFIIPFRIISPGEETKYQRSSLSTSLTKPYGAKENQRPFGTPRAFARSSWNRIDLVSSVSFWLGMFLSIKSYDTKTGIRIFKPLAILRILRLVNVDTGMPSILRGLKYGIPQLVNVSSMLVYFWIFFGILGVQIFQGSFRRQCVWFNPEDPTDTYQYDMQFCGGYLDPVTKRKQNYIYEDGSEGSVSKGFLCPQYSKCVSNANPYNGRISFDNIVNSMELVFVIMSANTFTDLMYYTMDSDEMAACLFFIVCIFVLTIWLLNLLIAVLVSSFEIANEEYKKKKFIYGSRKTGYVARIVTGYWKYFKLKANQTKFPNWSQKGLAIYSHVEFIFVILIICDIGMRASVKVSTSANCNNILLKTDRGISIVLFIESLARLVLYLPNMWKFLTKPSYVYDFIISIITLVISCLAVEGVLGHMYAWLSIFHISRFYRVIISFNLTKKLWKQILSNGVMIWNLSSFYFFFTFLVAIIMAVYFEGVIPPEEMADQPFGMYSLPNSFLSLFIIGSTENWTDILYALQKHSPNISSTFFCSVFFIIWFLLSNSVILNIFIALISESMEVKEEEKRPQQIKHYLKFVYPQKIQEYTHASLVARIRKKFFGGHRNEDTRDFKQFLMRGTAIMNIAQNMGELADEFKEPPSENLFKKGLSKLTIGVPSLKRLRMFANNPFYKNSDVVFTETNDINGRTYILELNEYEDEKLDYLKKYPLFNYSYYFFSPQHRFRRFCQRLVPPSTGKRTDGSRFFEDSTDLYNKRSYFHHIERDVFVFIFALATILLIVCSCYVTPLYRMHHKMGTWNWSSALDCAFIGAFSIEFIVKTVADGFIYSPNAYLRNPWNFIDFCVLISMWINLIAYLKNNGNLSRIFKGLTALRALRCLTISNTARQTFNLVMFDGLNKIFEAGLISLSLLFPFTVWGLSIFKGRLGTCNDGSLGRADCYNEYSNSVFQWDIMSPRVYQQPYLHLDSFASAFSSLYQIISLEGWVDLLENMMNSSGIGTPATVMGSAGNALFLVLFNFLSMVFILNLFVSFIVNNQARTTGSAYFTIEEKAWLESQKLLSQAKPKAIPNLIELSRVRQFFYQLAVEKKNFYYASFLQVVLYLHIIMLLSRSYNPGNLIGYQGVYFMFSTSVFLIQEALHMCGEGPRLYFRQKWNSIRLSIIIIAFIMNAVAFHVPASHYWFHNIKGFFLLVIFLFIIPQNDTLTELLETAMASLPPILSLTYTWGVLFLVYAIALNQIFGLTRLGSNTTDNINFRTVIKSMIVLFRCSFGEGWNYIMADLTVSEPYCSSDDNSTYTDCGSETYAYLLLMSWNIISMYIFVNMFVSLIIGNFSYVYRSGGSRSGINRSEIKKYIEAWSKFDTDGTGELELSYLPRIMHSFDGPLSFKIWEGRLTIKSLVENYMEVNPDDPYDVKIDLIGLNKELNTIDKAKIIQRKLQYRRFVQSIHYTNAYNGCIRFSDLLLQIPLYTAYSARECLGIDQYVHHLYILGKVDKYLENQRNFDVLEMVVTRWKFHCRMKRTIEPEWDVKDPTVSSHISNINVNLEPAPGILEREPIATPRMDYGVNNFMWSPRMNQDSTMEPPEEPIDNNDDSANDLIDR

T1: Mid1-FL^52 C431A/C498A (S. cerevisiae) (UniProt P41821)
T1 sequence: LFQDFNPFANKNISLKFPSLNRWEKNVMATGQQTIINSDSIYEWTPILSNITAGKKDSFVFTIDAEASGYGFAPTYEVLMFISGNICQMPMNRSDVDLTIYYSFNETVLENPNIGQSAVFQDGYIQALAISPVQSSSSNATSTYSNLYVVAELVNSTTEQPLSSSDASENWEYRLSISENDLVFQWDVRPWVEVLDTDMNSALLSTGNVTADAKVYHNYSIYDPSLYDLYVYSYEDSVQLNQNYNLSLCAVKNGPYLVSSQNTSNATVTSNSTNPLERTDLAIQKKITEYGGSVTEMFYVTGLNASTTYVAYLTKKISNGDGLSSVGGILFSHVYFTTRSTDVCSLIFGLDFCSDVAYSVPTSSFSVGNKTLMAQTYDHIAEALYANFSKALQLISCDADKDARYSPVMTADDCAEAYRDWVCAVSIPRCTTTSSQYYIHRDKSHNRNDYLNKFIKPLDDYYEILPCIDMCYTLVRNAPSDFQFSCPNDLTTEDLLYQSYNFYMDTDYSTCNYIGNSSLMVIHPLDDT

T2: Mid1-FL^52 C417A/C431A/C498A (S. cerevisiae) (UniProt P41821)
T2 sequence: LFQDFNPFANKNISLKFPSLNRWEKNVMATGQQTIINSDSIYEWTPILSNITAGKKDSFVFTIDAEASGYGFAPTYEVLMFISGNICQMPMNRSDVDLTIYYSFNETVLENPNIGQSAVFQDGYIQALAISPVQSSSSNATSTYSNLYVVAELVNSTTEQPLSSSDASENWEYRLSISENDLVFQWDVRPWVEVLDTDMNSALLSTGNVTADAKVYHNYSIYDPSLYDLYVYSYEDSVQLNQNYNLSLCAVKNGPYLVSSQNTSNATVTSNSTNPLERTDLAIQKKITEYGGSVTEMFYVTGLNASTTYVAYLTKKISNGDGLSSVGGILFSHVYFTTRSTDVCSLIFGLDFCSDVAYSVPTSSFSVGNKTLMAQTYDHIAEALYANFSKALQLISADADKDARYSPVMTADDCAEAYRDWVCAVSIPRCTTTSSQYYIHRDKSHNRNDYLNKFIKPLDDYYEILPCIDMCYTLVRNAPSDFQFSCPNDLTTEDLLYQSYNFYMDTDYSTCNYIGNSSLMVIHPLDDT

T3: Mid1 tagged internally with FLAG (Mid1-FL^52), wild type (S. cerevisiae) (UniProt P41821)
T3 sequence: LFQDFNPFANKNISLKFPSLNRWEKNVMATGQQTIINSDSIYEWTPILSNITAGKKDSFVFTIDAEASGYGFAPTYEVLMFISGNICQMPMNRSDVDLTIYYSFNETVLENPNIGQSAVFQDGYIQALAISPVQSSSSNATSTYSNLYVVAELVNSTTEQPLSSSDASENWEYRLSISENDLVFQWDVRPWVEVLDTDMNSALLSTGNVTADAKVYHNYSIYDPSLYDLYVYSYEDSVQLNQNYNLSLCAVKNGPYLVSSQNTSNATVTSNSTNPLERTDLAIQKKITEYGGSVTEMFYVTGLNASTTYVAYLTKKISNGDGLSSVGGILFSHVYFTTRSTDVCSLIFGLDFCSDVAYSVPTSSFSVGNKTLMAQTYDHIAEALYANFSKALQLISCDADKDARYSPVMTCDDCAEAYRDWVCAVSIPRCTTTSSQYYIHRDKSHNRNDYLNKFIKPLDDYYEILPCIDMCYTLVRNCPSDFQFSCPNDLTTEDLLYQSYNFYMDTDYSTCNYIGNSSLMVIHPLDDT

T4: Mid1-FL^52 C417A/C498A (S. cerevisiae) (UniProt P41821)
T4 sequence: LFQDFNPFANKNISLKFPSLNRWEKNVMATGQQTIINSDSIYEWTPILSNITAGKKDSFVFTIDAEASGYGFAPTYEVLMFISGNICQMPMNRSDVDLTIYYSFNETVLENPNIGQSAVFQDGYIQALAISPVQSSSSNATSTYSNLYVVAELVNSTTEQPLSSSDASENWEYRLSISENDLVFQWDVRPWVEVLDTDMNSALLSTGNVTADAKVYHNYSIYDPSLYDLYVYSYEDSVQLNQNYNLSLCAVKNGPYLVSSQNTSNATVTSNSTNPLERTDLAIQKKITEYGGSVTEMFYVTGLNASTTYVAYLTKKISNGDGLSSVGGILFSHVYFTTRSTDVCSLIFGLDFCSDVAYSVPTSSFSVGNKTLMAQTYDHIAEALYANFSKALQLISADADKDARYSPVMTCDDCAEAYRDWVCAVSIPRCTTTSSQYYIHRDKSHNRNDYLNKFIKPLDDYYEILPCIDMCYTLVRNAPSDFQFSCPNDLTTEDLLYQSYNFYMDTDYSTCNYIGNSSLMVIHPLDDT

B1: Mid1-FL^52 C417A/C431A (protein, UniProt P41821 21-548)
chain: LFQDFNPFANKNISLKFPSLNRWEKNVMATGQQTIINSDSIYEWTPILSNITAGKKDSFVFTIDAEASGYGFAPTYEVLMFISGNICQMPMNRSDVDLTIYYSFNETVLENPNIGQSAVFQDGYIQALAISPVQSSSSNATSTYSNLYVVAELVNSTTEQPLSSSDASENWEYRLSISENDLVFQWDVRPWVEVLDTDMNSALLSTGNVTADAKVYHNYSIYDPSLYDLYVYSYEDSVQLNQNYNLSLCAVKNGPYLVSSQNTSNATVTSNSTNPLERTDLAIQKKITEYGGSVTEMFYVTGLNASTTYVAYLTKKISNGDGLSSVGGILFSHVYFTTRSTDVCSLIFGLDFCSDVAYSVPTSSFSVGNKTLMAQTYDHIAEALYANFSKALQLISADADKDARYSPVMTADDCAEAYRDWVCAVSIPRCTTTSSQYYIHRDKSHNRNDYLNKFIKPLDDYYEILPCIDMCYTLVRNCPSDFQFSCPNDLTTEDLLYQSYNFYMDTDYSTCNYIGNSSLMVIHPLDDT
B2: Mid1-FL^52 C431A/C498A (protein, UniProt P41821 21-548)
chain: LFQDFNPFANKNISLKFPSLNRWEKNVMATGQQTIINSDSIYEWTPILSNITAGKKDSFVFTIDAEASGYGFAPTYEVLMFISGNICQMPMNRSDVDLTIYYSFNETVLENPNIGQSAVFQDGYIQALAISPVQSSSSNATSTYSNLYVVAELVNSTTEQPLSSSDASENWEYRLSISENDLVFQWDVRPWVEVLDTDMNSALLSTGNVTADAKVYHNYSIYDPSLYDLYVYSYEDSVQLNQNYNLSLCAVKNGPYLVSSQNTSNATVTSNSTNPLERTDLAIQKKITEYGGSVTEMFYVTGLNASTTYVAYLTKKISNGDGLSSVGGILFSHVYFTTRSTDVCSLIFGLDFCSDVAYSVPTSSFSVGNKTLMAQTYDHIAEALYANFSKALQLISCDADKDARYSPVMTADDCAEAYRDWVCAVSIPRCTTTSSQYYIHRDKSHNRNDYLNKFIKPLDDYYEILPCIDMCYTLVRNAPSDFQFSCPNDLTTEDLLYQSYNFYMDTDYSTCNYIGNSSLMVIHPLDDT
B3: Mid1-FL^52 C417A/C498A (protein, UniProt P41821 21-548)
chain: LFQDFNPFANKNISLKFPSLNRWEKNVMATGQQTIINSDSIYEWTPILSNITAGKKDSFVFTIDAEASGYGFAPTYEVLMFISGNICQMPMNRSDVDLTIYYSFNETVLENPNIGQSAVFQDGYIQALAISPVQSSSSNATSTYSNLYVVAELVNSTTEQPLSSSDASENWEYRLSISENDLVFQWDVRPWVEVLDTDMNSALLSTGNVTADAKVYHNYSIYDPSLYDLYVYSYEDSVQLNQNYNLSLCAVKNGPYLVSSQNTSNATVTSNSTNPLERTDLAIQKKITEYGGSVTEMFYVTGLNASTTYVAYLTKKISNGDGLSSVGGILFSHVYFTTRSTDVCSLIFGLDFCSDVAYSVPTSSFSVGNKTLMAQTYDHIAEALYANFSKALQLISADADKDARYSPVMTCDDCAEAYRDWVCAVSIPRCTTTSSQYYIHRDKSHNRNDYLNKFIKPLDDYYEILPCIDMCYTLVRNAPSDFQFSCPNDLTTEDLLYQSYNFYMDTDYSTCNYIGNSSLMVIHPLDDT
B4: Mid1-FL^52 C417A/C431A/C498A (protein, UniProt P41821 21-548)
chain: LFQDFNPFANKNISLKFPSLNRWEKNVMATGQQTIINSDSIYEWTPILSNITAGKKDSFVFTIDAEASGYGFAPTYEVLMFISGNICQMPMNRSDVDLTIYYSFNETVLENPNIGQSAVFQDGYIQALAISPVQSSSSNATSTYSNLYVVAELVNSTTEQPLSSSDASENWEYRLSISENDLVFQWDVRPWVEVLDTDMNSALLSTGNVTADAKVYHNYSIYDPSLYDLYVYSYEDSVQLNQNYNLSLCAVKNGPYLVSSQNTSNATVTSNSTNPLERTDLAIQKKITEYGGSVTEMFYVTGLNASTTYVAYLTKKISNGDGLSSVGGILFSHVYFTTRSTDVCSLIFGLDFCSDVAYSVPTSSFSVGNKTLMAQTYDHIAEALYANFSKALQLISADADKDARYSPVMTADDCAEAYRDWVCAVSIPRCTTTSSQYYIHRDKSHNRNDYLNKFIKPLDDYYEILPCIDMCYTLVRNAPSDFQFSCPNDLTTEDLLYQSYNFYMDTDYSTCNYIGNSSLMVIHPLDDT

The target in the first test is T1, Mid1-FL^52 C431A/C498A (S. cerevisiae). Briefly: co-IP; whole-cell extracts of S. cerevisiae expressing both proteins; precipitated with anti-FLAG antibody (Mid1-FL^52 as bait) and nProtein A-Sepharose, 1 h at 4 °C; IP buffer 50 mM Tris-HCl pH 8.0, 1.0% Triton X-100, 150 mM NaCl, 2 mM EDTA; Western blot with anti-Cch1. A general note: Immunoblotting shows a protein as a band on a membrane.
Consider “Cch1 (Ca^2+ channel homolog 1), wild type (from UniProt P50077 1-2039)”, for which the binding entry is “no binding”.

For a further test, the target named is T2, Mid1-FL^52 C417A/C431A/C498A (S. cerevisiae). Described as above.
For the molecule “Cch1 (Ca^2+ channel homolog 1), wild type (from UniProt P50077 1-2039)”, the binding result was “no binding”.

A further test deals with T3, Mid1 tagged internally with FLAG (Mid1-FL^52), wild type (S. cerevisiae). The description is as above.
As to “Cch1 (Ca^2+ channel homolog 1), wild type (from UniProt P50077 1-2039)”, the binding entry is on record as “binds”.

Take Cch1-C587A (from UniProt P50077 1-2039): the binding result was “binds”.

In the case of Cch1-C606A (from UniProt P50077 1-2039), the binding result is “binds”.

In the case of Cch1-C636A (from UniProt P50077 1-2039), the binding entry was “binds”.

For Cch1-C642A (from UniProt P50077 1-2039), the binding result is “binds”.

With “Cch1-C1284R (from UniProt P50077 1-2039)”, the binding entry was “binds”.

For the molecule “Cch1-C1369A (from UniProt P50077 1-2039)”, the binding result is recorded as “no binding”.

As for “Cch1-C1379A (from UniProt P50077 1-2039)”, the binding result is reported as “no binding”.

Take “Cch1-C1727A (from UniProt P50077 1-2039)”: the binding result is “binds”.

“Cch1-C1738A (from UniProt P50077 1-2039)”: the binding entry is given as “binds”.

Turning to “Cch1-D1371V (from UniProt P50077 1-2039)”, the binding entry is “no binding”.

On to “Cch1-M1333K (from UniProt P50077 1-2039)”, for which the binding result is “binds”.

As to “Cch1-M1393T (from UniProt P50077 1-2039)”, the binding entry is reported as “binds”.

Regarding “Cch1-S1322G (from UniProt P50077 1-2039)”, the binding entry is reported as “binds”.

Another test addresses T4, Mid1-FL^52 C417A/C498A (S. cerevisiae). The test is described as above.
As to “Cch1 (Ca^2+ channel homolog 1), wild type (from UniProt P50077 1-2039)”, the binding result is on record as “no binding”.

The target in the next test is Cch1 (Ca^2+ channel homolog 1), wild type (S. cerevisiae) (UniProt P50077). Briefly: co-IP; whole-cell extracts of S. cerevisiae expressing both proteins; precipitated with anti-Cch1 antibody (Cch1 as bait) and nProtein A-Sepharose, 1 h at 4 °C; IP buffer 50 mM Tris-HCl pH 8.0, 1.0% Triton X-100, 150 mM NaCl, 2 mM EDTA; Western blot with anti-FLAG.
Consider B1, for which the binding entry is “binds”.

In the case of B2, the binding entry is given as “no binding”.

With B3, the binding result was “no binding”.

With B4, the binding entry was “no binding”.

The record behind these values is article PMC7489899.
